Reference: the supplement of paper PMC10600219
Where a name gives a salt, the structure may show the parent alone. Whole data set: some 2,800 compounds, median “cell viability relative to vehicle” near 0.98, cut for the lowest 2% near 0.45. This is one part of the list.

Tested on: NCI-H2228 alectinib-DTP
Assay: cell viability relative to vehicle (fraction of vehicle); NCI-H2228 is an ALK-positive lung cancer line and DTP means drug-tolerant persister; higher = less growth inhibition
Details: 100 nM; treatment time 6 days
In short: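 NCI-H2228 parental cells and drug-tolerant persister cells were plated in 384-well plates; the persisters had been generated with 1000 nM of a targeted drug over 13 days. One day later, the 3114-agent TargetMol anti-cancer compound library was added at 100 nM, with DMSO serving as vehicle. ATP was measured 6 days after that using the CellTiter-Glo 3D Cell Viability Assay. Values are cell viability expressed relative to vehicle-treated cells.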

Q: How did the cell viability turn out when `O=P(O)(O)O[C@H]1[C@H](OP(=O)(O)O)[C@@H](OP(=O)(O)O)[C@H](OP(=O)(O)O)[C@@H](OP(=O)(O)O)[C@H]1OP(=O)(O)O` [Phytic acid] was run?
A: 1.13

Q: `NS(=O)(=O)Oc1ccc2c3c(c(=O)oc2c1)CCCCC3` [Irosustat] was tested. Which cell viability did it give?
A: 0.927

Q: With `Cc1nc(N(C)C(=O)Cc2ccc(-c3ccccn3)cc2)sc1S(N)(=O)=O` [Pritelivir] as the molecule, how does the cell viability read?
A: 0.849

Q: With `Cn1cc(/C=C/C(=O)c2cccc(F)c2)cc1/C=C/C(=O)NO` as the molecule, how does the cell viability read?
A: 0.84

Q: Which cell viability does the source give for `C/C(O)=C(\C#N)C(=O)Nc1ccc(C(F)(F)F)cc1` [Teriflunomide] here?
A: 1

Q: With `CONC(=O)Nc1ccc(-c2sc3c(c2CN(C)Cc2ccccc2)c(=O)n(-c2ccccc2)c(=O)n3Cc2c(F)cccc2F)cc1` [Sufugolix] as the molecule, how does the cell viability read?
A: 0.96

Q: Which cell viability does the source give for `C[C@@H]1C/C=C/C=C/C=C/C=C/[C@H](O[C@@H]2O[C@H](C)[C@@H](O)[C@H](N)[C@@H]2O)C[C@@H]2O[C@](O)(C[C@@H](O)C[C@H]3O[C@@H]3/C=C/C(=O)O1)C[C@H](O)[C@H]2C(=O)O` [Pimaricin] here?
A: 1.27

Q: With `CC1=NN(c2ccc(C)c(C)c2)C(=O)/C1=N\Nc1cccc(-c2cccc(C(=O)O)c2)c1O` [Eltrombopag Olamine] as the molecule, how does the cell viability read?
A: 1

Q: With `O=c1cc(-c2ccccc2)oc2ccccc12` [Flavone] as the molecule, how does the cell viability read?
A: 1.22

Q: Which cell viability does the source give for `C/C=C\c1ccc(OC)cc1` [cis-Anethol] here?
A: 1.03

Q: With `CCn1c(=O)c2c(nc(/C=C/c3ccc(OC)c(OC)c3)n2C)n(CC)c1=O` [Istradefylline] as the molecule, how does the cell viability read?
A: 0.989

Q: `Cc1cc(C)nc(NS(=O)(=O)c2ccc(N)cc2)n1` [Sulfamethazine sodium salt] was tested. Which cell viability did it give?
A: 0.832

Q: `CC(C)(O)[C@@H]1CC[C@](C)([C@H]2[C@@H](O)C[C@@]3(C)[C@@H]4C[C@H](O)[C@H]5C(C)(C)[C@@H](O)CC[C@@]56C[C@@]46CC[C@]23C)O1` [Cycloastragenol] was tested. Which cell viability did it give?
A: 0.973

Q: With `O=C(Nc1cnn2ccc(N3CCC[C@@H]3c3cc(F)ccc3F)nc12)N1CC[C@H](O)C1` [Larotrectinib sulfate] as the molecule, how does the cell viability read?
A: 1.08

Q: For `CN1CCN2c3ncccc3Cc3ccccc3C2C1` (stereo unspecified) [Mirtazapine], which cell viability is on record?
A: 1.21

Q: For `CC(C)[C@H](N)C(=O)OCCOCn1cnc2c(=O)nc(N)[nH]c21` [Valacyclovir hydrochloride], which cell viability is on record?
A: 1.05

Q: With `CCC[C@@H]1C[C@@H](C(=O)N[C@@H]([C@H]2O[C@H](SC)[C@H](OP(=O)(O)O)[C@@H](O)[C@H]2O)[C@H](C)Cl)N(C)C1` [Clindamycin phosphate] as the molecule, how does the cell viability read?
A: 1.03

Q: How did the cell viability turn out when `CC(O)c1cc(C(=O)N[C@@H](C)Cn2ccc(-c3ccc(C#N)c(Cl)c3)n2)n[nH]1` (stereo partly specified) [Darolutamide] was run?
A: 0.989

Q: How did the cell viability turn out when `CCCCCCNC(=O)n1cc(F)c(=O)[nH]c1=O` [Carmofur] was run?
A: 1.09

Q: `COc1cc2c(NC3CCN(C(C)C)CC3)nc(N3CCC(F)(F)CC3)nc2cc1OCCCN1CCCC1` was tested. Which cell viability did it give?
A: 1.09

Q: `COc1cccc2c1C(=O)c1c(O)c3c(c(O)c1C2=O)C[C@@](O)(C(=O)CO)C[C@@H]3O[C@H]1C[C@H](N)[C@H](O[C@@H]2CCCCO2)[C@H](C)O1` [Pirarubicin] was tested. Which cell viability did it give?
A: 0.684

Q: With `Cc1nc(C(=O)NCC(=O)O)c(O)c2ccc(Oc3ccccc3)cc12` [Roxadustat] as the molecule, how does the cell viability read?
A: 0.941

Q: For `COC(=O)N[C@@H](C)CNc1nccc(-c2cn(C(C)C)nc2-c2cc(Cl)cc(NS(C)(=O)=O)c2F)n1` [Encorafenib], which cell viability is on record?
A: 0.985

Q: `CC[C@@H]1C(=O)N(C)c2cnc(Nc3ccc(C(=O)N[C@H]4CC[C@H](N5CCN(CC6CC6)CC5)CC4)cc3OC)nc2N1C(C)C` [Volasertib] was tested. Which cell viability did it give?
A: 0.595

Q: Which cell viability does the source give for `CC#C[C@]1(O)CC[C@H]2[C@@H]3CCC4=CC(=O)CCC4=C3[C@@H](c3ccc(N(C)C)cc3)C[C@@]21C` [Mifepristone] here?
A: 1.09

Q: With `COc1ccc(Cl)cc1C(=O)NCCc1ccc(S(=O)(=O)NC(=O)NC2CCCCC2)cc1` [Glyburide] as the molecule, how does the cell viability read?
A: 0.923

Q: With `Nc1nc(=O)n([C@@H]2CS[C@H](CO)O2)cc1F` [Emtricitabine] as the molecule, how does the cell viability read?
A: 1.03

Q: How did the cell viability turn out when `CC(C)=CCC1=C(O)C(=O)c2ccccc2C1=O` [Lapachol] was run?
A: 0.96

Q: How did the cell viability turn out when `Cc1c(O)c(C)c2c(c1O)C(=O)C[C@@H](c1ccc(O)cc1)O2` [Farrerol] was run?
A: 0.874

Q: For `CC(=O)O[C@H]1CC(=O)OC(C)(C)[C@@H]2CC(=O)[C@]3(C)[C@H](CC[C@@]4(C)[C@@H](c5ccoc5)OC(=O)[C@H]5O[C@]543)[C@@]12C` [Nomilin], which cell viability is on record?
A: 1.15

Q: With `COc1ccc2c3n(c(=NC(=O)c4cccnc4)nc2c1OC)CCN3` as the molecule, how does the cell viability read?
A: 0.447

Q: For `O=P(O)(O)C(O)(Cn1ccnc1)P(=O)(O)O` [Zoledronic Acid], which cell viability is on record?
A: 0.799

Q: For `COC(=O)[C@H](CC(C)C)NC(=O)c1ccc(NC[C@@H](N)CS)cc1-c1cccc2ccccc12`, which cell viability is on record?
A: 1.08

Q: For `O=C(Nc1cnc(Cl)nc1)c1ccc(F)c(F)c1`, which cell viability is on record?
A: 1.03

Q: Which cell viability does the source give for `Cc1cc(C(C)(C)C)cc(C)c1CC1=NCCN1` [Xylometazoline hydrochloride] here?
A: 1.04

Q: `O=c1c(O)c(-c2ccc(O)cc2)oc2cc(O)cc(O)c12` [Kaempferol] was tested. Which cell viability did it give?
A: 0.87

Q: `NC[C@@](O)(c1ccc(Cl)cc1)c1ccc(-c2cn[nH]c2)cc1` was tested. Which cell viability did it give?
A: 1.02

Q: Which cell viability does the source give for `CC(C)NC(=O)C1CCC(n2c(NC(=O)c3ccc(F)cc3)nc3ccc(CN4CCC(C(C)(C)O)CC4)cc32)CC1` (stereo unspecified) [Belizatinib] here?
A: 1.1

Q: `N#C/C(=C(/N)Sc1ccc(N)cc1)c1ccccc1C(F)(F)F` was tested. Which cell viability did it give?
A: 0.926

Q: For `COc1cc2nc(N3CCN(C(=O)C4COc5ccccc5O4)CC3)nc(N)c2cc1OC` (stereo unspecified) [Doxazosin mesylate], which cell viability is on record?
A: 0.911

Q: `CC(C)n1ncnc1-c1cn2c(n1)-c1ccc(O[C@@H](C)C(N)=O)cc1OCC2` was tested. Which cell viability did it give?
A: 0.717

Q: Which cell viability does the source give for `CCCc1ccc(OCC(=O)N(Cc2nc(-c3cccnc3)no2)C(C)C)cc1` here?
A: 1.14

Q: For `N[C@H]1CONC1=O` [L-Cycloserine], which cell viability is on record?
A: 1.1

Q: For `CNC(=O)c1ccc(N2C(=S)N(c3ccc(C#N)c(C(F)(F)F)c3)C(=O)C2(C)C)cc1F` [Enzalutamide], which cell viability is on record?
A: 0.886

Q: How did the cell viability turn out when `O=C(CCBr)N1CCN(C(=O)CCBr)CC1` [Pipobroman] was run?
A: 0.901

Q: How did the cell viability turn out when `CC(C)(C)c1cc(NC(=O)Nc2ccc(-c3cn4c(n3)sc3cc(OCCN5CCOCC5)ccc34)cc2)no1` [Quizartinib] was run?
A: 0.89

Q: With `CN1CCN(c2ccc(-c3cccc(CN4CCOCC4)c3)cc2NC(=O)c2c[nH]c(=O)cc2C(F)(F)F)CC1` as the molecule, how does the cell viability read?
A: 0.918

Q: How did the cell viability turn out when `Nc1nc2c(cnn2CCc2ccccc2)c2nc(-c3ccco3)nn12` was run?
A: 0.868

Q: With `COc1cc2nccc(Oc3ccc(NC(=O)c4cn(C(C)C)c(=O)n(-c5ccc(F)cc5)c4=O)cc3F)c2cc1OC` as the molecule, how does the cell viability read?
A: 0.893

Q: Which cell viability does the source give for `OCC1OC(O)CC(O)C1O` [2-Deoxy-D-glucose] here?
A: 1.13

Q: For `CCN(CC)CCCC[C@H](NC(=O)[C@H](CC(C)C)NC(=O)[C@H](C)NC(=O)[C@H](Cc1ccccc1)NC(=O)c1ccc(C(C)(C)C)cc1)C(=O)N[C@@H](CO)C(=O)OC`, which cell viability is on record?
A: 1.08

Q: `Cc1c(N)c(=O)n(-c2ccccc2)n1C` [4-Aminoantipyrine] was tested. Which cell viability did it give?
A: 1.18

Q: For `CCC(Sc1nnc2c3ccccc3n(CC)c2n1)C(=O)Nc1ccccc1OC` (stereo unspecified), which cell viability is on record?
A: 1.01

Q: `O=C(/C=C/c1cccc(S(=O)(=O)Nc2ccccc2)c1)NO` [Belinostat] was tested. Which cell viability did it give?
A: 0.867

Q: Which cell viability does the source give for `CN[C@H]1CC[C@@H](c2ccc(Cl)c(Cl)c2)c2ccccc21` [Sertraline hydrochloride] here?
A: 0.99

Q: Which cell viability does the source give for `CN1CCc2nc(C(=O)N[C@@H]3C[C@@H](C(=O)N(C)C)CC[C@@H]3NC(=O)C(=O)Nc3ccc(Cl)cn3)sc2C1` [Edoxaban Tosylate Monohydrate] here?
A: 1.03

Q: Which cell viability does the source give for `OCCn1cc(-c2ccc3c(c2)CC/C3=N\O)c(-c2ccncc2)n1` here?
A: 1.14

Q: How did the cell viability turn out when `CC[C@H]1OC(=O)[C@H](C)[C@@H](O[C@H]2C[C@@](C)(OC)[C@@H](O)[C@H](C)O2)[C@H](C)[C@@H](O[C@@H]2O[C@H](C)C[C@H](N(C)C)[C@H]2O)[C@](C)(O)C[C@@H](C)CN(C)[C@H](C)[C@@H](O)[C@]1(C)O` [Azithromycin dihydrate] was run?
A: 1.02

Q: `CCOC(=O)C1=C(C)NC(=S)NC1c1cccc(O)c1` (stereo unspecified) [Monastrol] was tested. Which cell viability did it give?
A: 1.02

Q: `CCn1c(N)c(C(=O)NC)c(=O)c2ccc(C#CC(C)(O)COC)nc21` (stereo unspecified) was tested. Which cell viability did it give?
A: 1.01

Q: With `Cc1cc(O)c(-c2ccc(C(C)CN)cc2)c2c1[nH]c(=O)c1sccc12` (stereo unspecified) as the molecule, how does the cell viability read?
A: 0.15

Q: For `CC(C)[N+]1(C)[C@@H]2CC[C@H]1C[C@@H](OC(=O)C(CO)c1ccccc1)C2` (stereo partly specified) [Ipratropium bromide monohydrate], which cell viability is on record?
A: 1.21

Q: Which cell viability does the source give for `CC(C)[N+]1(C)[C@@H]2CC[C@H]1C[C@@H](OC(=O)C(CO)c1ccccc1)C2` (stereo partly specified) [Ipratropium Bromide] here?
A: 1

Q: Which cell viability does the source give for `Cc1ccc(-c2cc(C(F)(F)F)nn2-c2ccc(S(N)(=O)=O)cc2)cc1` [Celecoxib] here?
A: 1.23

Q: With `Cc1ccc(NC(=O)CCCCCC(=O)Nc2ccccc2N)cc1` [Pimelic diphenylamide 106] as the molecule, how does the cell viability read?
A: 0.966

Q: For `Nc1ccc(S(=O)(=O)Nc2nccs2)cc1` [Sulfathiazole], which cell viability is on record?
A: 1.08

Q: For `O=C(O)c1cccc(-c2noc(-c3ccccc3F)n2)c1` [Ataluren], which cell viability is on record?
A: 0.915

Q: Which cell viability does the source give for `Cc1c(-c2ccc(O)cc2)n(Cc2ccc(OCCN3CCCCCC3)cc2)c2ccc(O)cc12` [Bazedoxifene acetate] here?
A: 1.07

Q: How did the cell viability turn out when `CCc1cc2c(cc1CC)CC(NC[C@H](O)c1ccc(O)c3[nH]c(=O)ccc13)C2` [Indacaterol] was run?
A: 0.931

Q: `CCc1cc2c(cc1CC)CC(NC[C@H](O)c1ccc(O)c3[nH]c(=O)ccc13)C2` [Indacaterol maleate] was tested. Which cell viability did it give?
A: 1

Q: For `O=C(O)C1=C(CSc2nnnn2CS(=O)(=O)O)CS[C@@H]2[C@H](NC(=O)[C@H](O)c3ccccc3)C(=O)N12` [Cefonicid sodium], which cell viability is on record?
A: 1.07
